Test results published in PubChem BioAssay AID1508624 (National Center for Advancing Translational Sciences (NCATS), 2021).
Hit rate of the full screen: of about 48,000 compounds, about 120 (0.25%) were called active. This list was built around the results that the source calls inconclusive (neither active nor inactive); the mix of calls is not that of the screen. Calls come from the whole dose curve; as a rule, active = well fitted activation curve with a large enough effect; inconclusive = small, poorly fitted or top-dose-only effect, or another doubt; inactive = no such curve, though single readings can be large or run the other way. Potencies of inconclusive entries are doubtful fits and often do not repeat.
Potency is the fitted concentration of half-maximal effect; tags give direction and shape of the fitted curve.

Assay: Primary qHTS for Identification of Small Molecule Activators of Huntingtin-Antisense Promoter Activity; note: nearly all actives have a fitted effect of over 55% in size
Conditions: HEK293 HTT-AS promoter firefly luciferase reporter, 24 h; activity change, positive = activation: at 57.5 µM (top of the series), percent change from vehicle, -100% = no light
In short: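 Firefly luciferase signal from promoter-reporter HEK293 cells was scaled between vehicle (0%) and zero RLU (-100%). Compounds were tested at final concentrations of up to 57.5 uM over 24 h at 37 degrees C. PTC124 at 50 uM final served as control inhibitor.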
For CCCC(=O)Nc1cc2nn(-c3ccccc3)nc2cc1C, the Potency was inconclusive: 1.12 µM [activator, full curve, poor fit].
For CCc1ccccc1NC(=O)Nc1c(C)n(C)n(-c2ccccc2)c1=O, the “activity change, positive = activation” value was inactive: 4.32%.
For CCOc1ccc(NS(=O)(=O)c2ccc(C(=O)N(C)C)s2)cc1, the activity change, positive = activation was inconclusive: -34.3% [activator].
In the case of COc1cccc(NC(=O)CC(=O)Nc2ccc3nc4n(c(=O)c3c2)CCCCC4)c1, the “activity change, positive = activation” value is reported as inactive: -3.09%.
In the case of COc1ccc(OC)c(CNC(=O)c2ccc3c(c2)c(C)c(C)n3Cc2ccc(Cl)cc2)c1, the “activity change, positive = activation” value is reported as inactive: -29%.
For O=C(OCc1ccccc1)c1ccc(O)cc1, the Potency was inconclusive: 35.5 µM [activator, single point].
In the case of COc1ccc(/C=C/C(=O)Nc2nc(-c3cccs3)ns2)cc1, the “activity change, positive = activation” value is reported as inactive: -20.2%.
For Cc1ccc(-c2cn3c(n2)sc2cc(C(=O)NCCC4=CCCCC4)ccc23)cc1, the Potency was inconclusive: 22.4 µM [activator, partial curve, poor fit].
For CN1CCc2c(sc3c2C(=O)NC(c2ccc(C(C)(C)C)cc2)N3)C1 (centres undefined), the activity change, positive = activation was inactive: 5.19% [at 11.5 µM, percent change from vehicle, -100% = no light].
In the case of CC1CCCCN1C(=O)c1cc(-c2ccc(Br)cc2)on1 (centres undefined), the Potency is reported as inconclusive: 25.1 µM [activator, partial curve, poor fit].
In the case of CCCCCn1c(=O)[nH]c2cc(C(=O)N3CCN(c4cccc(C(F)(F)F)c4)CC3)ccc2c1=O, the “activity change, positive = activation” value is reported as inactive: -33.1%.
In the case of Cc1cc2nc(-c3ccc(NC(=O)c4cc5ccccc5o4)cc3)oc2cc1C, the Potency is reported as inconclusive: 31.6 µM [activator, single point].
In the case of Nc1c(I)cc(I)c(C(=O)N(CCC(=O)O)c2ccccc2)c1I, the “activity change, positive = activation” value is reported as inactive: -23.6%.
For CCC(=O)Nc1cc2nn(-c3ccc(C)cc3)nc2cc1C, the activity change, positive = activation was inconclusive: -61.2% [activator].
In the case of Cc1ccccc1CNC(=O)c1ccc(CN2CC(=O)N3CCCCC3C2=O)cc1 (centres undefined), the “activity change, positive = activation” value is reported as inactive: -21.2%.
For CCCCC1CCC(CCCC(C)CCC(=O)O)CC1 (centres undefined), the “activity change, positive = activation” value was inactive: -13.6%.
In the case of CC(C)CCNc1ncnc2c1cnn2-c1cccc(Cl)c1, the Potency is reported as inconclusive: 4.47 µM [activator, single point].
In the case of Cc1ccc(C(=O)CC2(O)C(=O)N(Cc3ccccc3)c3ccccc32)c(C)c1 (centres undefined), the “activity change, positive = activation” value is reported as inactive: -24.9%.
In the case of CCOC(=O)C1CCCN(C(=O)c2ccc(NC(=O)c3nsc4ccccc34)cc2)C1 (centres undefined), the Potency is reported as inconclusive: 1.78 µM [activator, full curve, poor fit].
In the case of CN(C)CCNC(=O)c1ccc2nc(CCc3ccccc3)oc2c1, the Potency is reported as inconclusive: 25.1 µM [activator, single point].
With COc1ccc(NC(=O)/C(C#N)=C/c2ccc(C)o2)cc1 the Potency was inconclusive: 3.16 µM [activator, partial curve, poor fit].
In the case of CC1CCCN(c2ncnc3c2nc2n3CCCCC2)C1 (centres undefined), the Potency is reported as inconclusive: 3.16 µM [activator, full curve].
In the case of CN(C)c1ccc(CNc2nc(-c3ccco3)nn2S(C)(=O)=O)cc1, the Potency is reported as inconclusive: 20 µM [activator, partial curve, poor fit].
In the case of CCOC(=O)c1ccc(NC(=O)c2cnc(N3CCCC3)nc2C)cc1, the “activity change, positive = activation” value is reported as inactive: -8.77%.
In the case of CC(=O)c1ccc(NC(=O)CSc2nccn2Cc2ccco2)cc1, the Potency is reported as active: 3.16 µM.
For CCc1ccc2nc(N(Cc3cccnc3)C(=O)c3cccs3)sc2c1, the Potency was inconclusive: 7.08 µM [activator, single point].
With CC(=O)c1cccc(NC(=O)c2noc3c2CC(C)CC3)c1 (centres undefined) the Potency was inconclusive: 39.8 µM [activator, single point].
In the case of Cn1c(=NC(=O)c2ccc(F)cc2)sc2cc(Br)ccc21, the Potency is reported as inconclusive: 1.12 µM [activator, full curve, poor fit].
In the case of Cc1cccn2c(=O)c(C(=O)NCCc3ccc(Cl)cc3)cnc12, the Potency is reported as inconclusive: 12.6 µM [activator, partial curve].
For CCCNS(=O)(=O)c1cc(-c2nnc3c4ccccc4c(C)nn23)ccc1OC, the “activity change, positive = activation” value was inactive: -3.98%.
In the case of COc1cccc(C(=O)Nc2ccccc2-c2nc(-c3ccc(C)cc3)no2)c1, the Potency is reported as inconclusive: 25.1 µM [activator, single point].
With CC(=O)c1cccc(NC(=O)c2sc3nc4c(cc3c2N)CCCC4)c1 the Potency was inconclusive: 2.51 µM [activator, partial curve, poor fit].
With COc1ccccc1NC(=O)c1oc2ccccc2c1NC(=O)c1ccccc1C(F)(F)F the Potency was inconclusive: 39.8 µM [activator, single point].
For CC(O)(C#Cc1ccc2c(c1)N(c1nc(N)ncc1Cl)CC2)c1nccs1 (centres undefined), the “activity change, positive = activation” value was inactive: -22.7%.
For Cc1c(C)n(Cc2ccccc2)c2ccc(C(=O)NCCc3ccccc3Cl)cc12, the “activity change, positive = activation” value was inactive: -11.2%.
In the case of Cc1ccc(C)c(N2CCN(C(=O)CCS(=O)(=O)c3ccc4c(c3)CC(=O)N4C)CC2)c1, the activity change, positive = activation is reported as inconclusive: -90.6% [activator].
With Cc1cc(C)cc(NC(=O)N2CCN3CCCCC3C2)c1 (centres undefined) the “activity change, positive = activation” value was inactive: 0.155%.
For Cn1cc(C(=O)NCc2ccc(Cl)cc2)c(=O)c2cc(S(=O)(=O)N3CCCCCC3)ccc21, the Potency was inconclusive: 2.82 µM [activator, partial curve, poor fit].
For Cc1ccc(C(=O)Nc2ccc(C(=O)OCc3cc(=O)n4ccsc4n3)cc2)cc1, the Potency was inconclusive: 4.47 µM [activator, full curve].
In the case of Cc1ccc(S(=O)(=O)N2CCc3cc(C(=O)Nc4ccc(C)c(C)c4)ccc32)cc1, the Potency is reported as inconclusive: 2.24 µM [activator, partial curve].
For COc1ccc(CC(=O)Nc2c(C(=O)Nc3ccc(F)cc3)oc3ccccc23)cc1OC, the Potency was inconclusive: 20 µM [activator, partial curve].
In the case of COc1ccc(-c2nc3ccccc3o2)cc1NC(=O)CSc1ccc(Cl)cc1, the Potency is reported as inconclusive: 3.16 µM [activator, full curve].
For CN(C(=O)c1ccc(F)cc1C(F)(F)F)C1CCN(c2nnc(-c3ccnn3C)c3ccccc23)CC1, the “activity change, positive = activation” value was inactive: -37%.
In the case of O=C(OCC1(COC(=O)c2cccnc2)CCCC(COC(=O)c2cccnc2)(COC(=O)c2cccnc2)C1O)c1cccnc1, the “activity change, positive = activation” value is reported as inactive: -4.25%.
